Reference: the RNAGym collection of RNA variant scans (doi:10.1093/nar/gkz1192)
The source gives no read counts; variants with many changes may rest on few reads.

B1: CPEB3 Ribozyme (parent)
chain: UAACAGGGGGCCACAGCAGAAGCGUUCACGUCGCAGCCCCUGUCAGAUUCUGGUGAAUCUGCGAAUUCUGCUGUAUAUCUC

Variants of: B1
Experiment: self-cleavage, relative activity (ratio to wild type); higher = more cleavage; in vitro, sequencing
Method in brief: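 CPEB3 self-cleaving ribozyme mutant libraries were made by rounds of error-prone PCR, barcoded, and transcribed in vitro with T7 RNA polymerase for 5 hours at 37°C. Cleavage occurred during transcription and a 15 min DNase I step before EDTA stop. RNAs were reverse transcribed with template switching and Illumina-sequenced, with DNA sequencing mapping barcodes to variants. Relative activity is the variant's cleaved/total read fraction divided by wild type's (minimum 5 reads), averaged across three batches.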

Variant | self-cleavage
G6A A18U A35G A47G U74C U80C | 0.14
A5U U25C A28G C50U G53A U72A | 0.17
A5U U31C G36U U60A | 0.11
A5U U51A U74A U80A | 1.04
G6A A18G A75U | 0.34
A5U U51C A56G A64G U67C U74C U76C | 0.24
A5U U49A A64G | 0.74
A5U U26A U48A | 0.25
G6A A56G A64G | 0.28
G6A A15G U31A U43C | 0.33
A5U U31A A35G | 1.21
G6A A21U C23U A28U C71U A77G | 0.04
A5U U43A A64G | 1.12
G6A C37U G52C U58C U72C | 0.25
A5U G7C C17G U26A | 0.07
G6A A15G G24C G36C U74C A75G | 0.05
G6A A13G A47G G53A C71G | 0.2
A5U G9U A35U A57U C71U | 0.12
A5U U60C G63A A65G U72A U76C | 0.26
A5U U26C U43A U49C U58C U67C | 0.07
G6A A20G U69C | 0.2
A5U U26A U41A A56U U60A | 0.15
A5U U67A A75U | 0.62
G6A A18U U26C U69C U72A | 0.08

Variant | self-cleavage
A5U U26C C27G U72C | 0.23
A5U U41A U60A U67C U78C U80A | 0.07
A5U U26G U58C | 0.1
A5U G7C G33A U43C C79U | 0.03
A5U U54C U74A | 1.19
G6A C62U U67C | 0.11
G6A A15G A18C U25C U48C G73U A75U | 0.03
A5U U31C G53A A57G U78A | 0.73
G6A A13G U69G | 0.26
A5U G10A U49A U58C A64U | 0.08
G6A A21G U31C A35G U49C A64G | 0.13
A5U G9U U31C | 0.08
G6A C12U A13G C23U U49A A77U U78A | 0.04
A5U U49A U58C A64U U66A U78C | 0.1
A5U U26A A35G U54A U76A | 1.21
G6A C11A A15G U69C U72A | 0.07
G6A A35U A64G | 0.53
A5U U60C U72A U76C | 0.41
G6A A13G U41A U54A G61C U67C | 0.16
A5U U25C U26C U51A U58A U76A | 0.21
A5U U41C U54A U67A | 0.44
A5U U26C A35U A47G | 0.21
G6A A20G U43A U48C A65C U69C | 0.05
A5U G9A C38U U69A U72A | 0.08

Variant | self-cleavage
A5U G36A U58C U69A | 0.18
A5U U26C G42C U49C | 0.33
A5U U25C U60A | 0
A5U G52A U66C | 0.36
A5U U31C C40U U43C A57G | 0.08
A5U G8C A15G C27A A64G | 0
G6A A20G A35C G36A U41C U49A U69A | 0.06
A5U U48C U66C | 0.21
A5U U25C U41C A64G | 0.12
G6A C12U U60C U72A | 0.17
G6A A21G C40A U48C U51C | 0.66
A5U U26G U80C | 0.18
G6A A35C U58C U76A U80A | 0.45
A5U G8A C11U C29U U41C U49A U67C | 0.13
A5U U49C G52A U80C | 0.68
G6A A13U A47U | 0.32
A5U G24U G30A A45G | 0.26
A5U U49C A56U U78C | 0.7
A5U U43C A57G U74C A75C | 0.6
A5U G33A U48C A64G | 0.18
A5U U41C U54A U69C U74G | 0.87
G6A A35U U41A U43C U69A | 0.05
A5U G8A U25C A28G U54C A75U | 0.04
A5U U31C A56U C71A | 0.18

Variant | self-cleavage
G6A A18G U58A U78C | 0.06
A5U U43C A45G A47G | 0.25
A5U G10U A18C G36A U80A | 0.06
G6A A56G U74G | 0.7
A5U G10U C14U A20U | 0.06
G6A A47U U78C | 0.07
G6A A15U U26C U43A A64U U67A | 0.05
G6A C12A A20U U51A A75G | 0.16
G6A A56G U72G | 0.06
G6A C14U U26A A47G U60C | 0.11
A5U U60C A65U | 0.24
G6A A35U C37U C40G | 0.16
A5U U41C U58C U69A | 0.22
G6A A18G U41A U43A A56U C71G | 0.04
A5U U48C U49C C50G | 0.17
G6A G7A A20G C23U A35G A47U U67C | 0.07
A5U G10C G52A G70U | 0.06
G6A A35G U51C | 0.65
A5U U25C U72C U80A | 0.37
A5U G19U G30A A35U U41A A47U | 0.25
A5U U60C C62A | 0.29
A5U G19U A28C U67C | 0.31
A5U U25C U69C C79A | 0.23
A5U G9U A56U U67A U74A | 0.31

Variant | self-cleavage
A5U U43A U49C U69C | 0.32
A5U U51A A64G U69G U72A | 0.51
A5U U31C A47U U51A U66C U72C | 0.07
A5U U26A C44U | 0.85
G6A A18G A35U U54A | 0.36
A5U U54C U80A | 1.19
A5U U26C C40G U48C A65G | 0.22
G6A C32U C34U A77U | 0.24
G6A A56G G61A U72A | 0.08
G6A A18G C29U | 0.08
G6A A15G U69A U80G | 0.17
G6A A20G U41G U48C U69C | 0.12
A5U U31A A45U A47G U54C U69A | 0.17
A5U U25C G30A U58C A64G U78A | 0.18
G6A A18G U26A | 0.31
A5U G8A U25C G36C C38U A45U U51G | 0.04
A5U G9A A75G | 0.47
A5U G10U C17U G30A U51A U69G | 0.08
A5U U49C A64U U69C | 0.09
A5U G70C U78C | 0.25
A5U U25C C27A A56G U69A A75G U80A | 0.12
G6A A15C A18G G36A | 0.24
A5U G9A U26C A45G G52A U67C U72C | 0.06
A5U U51G G52A G53A G70A | 0.34

Variant | self-cleavage
G6A A21G U31A U66C U72G | 0.07
A5U U48C A56U C71G | 0.12
G6A A35U U49A A65G U69C U72A | 0.05
G6A A13C U67C | 0.29
G6A A28G C62A | 0.02
A5U U26A A35C U54C A56U A65C | 0.09
G6A A20G U51C A64G U72A | 0.14
A5U U25A U26C C29U | 0.21
G6A A13G U25A C27U U69A A75U | 0.13
G6A A28C U69C U76A U78C | 0.12
G6A A28G A64G A65U G73A | 0.26
G6A A13C U25A U60C A64G A75U | 0.08
G6A G8U C12U C40A C50U U76G | 0.04
G6A C39U A57U U66A | 0.21
G6A A64G U78A | 0.43
G6A A35G U41A A64U U80C | 0.06
A5U U41C A45G A64U | 0.35
A5U G9A A57G U60A U66C | 0.14
A5U U41C U51A G63A U74C | 1.11
G6A A15G U43C U67C | 0.15
G6A A18G A35U A64G U66C U72C | 0.04
G6A C44A U60A A65G | 0.14
G6A C32A U51A U76C U80C | 0.19
A5U U31C U51C U60A A64G G73U | 0.13

Variant | self-cleavage
A5U U26C U76A | 0.88
A5U U26C U41C U69G | 0.44
G6A A13U A56G | 0.2
G6A A18U U25C C32A U80A | 0.33
A5U G33A U43C A45U U69C A75U | 0.14
A5U U26C A56C A65C | 0.19
G6A C11U A15U U43C A57G U69C U76A | 0.05
G6A A21G A35U | 0.07
A5U U26C A45G A57C U72A U78C | 0.09
G6A A15U A20G | 0.18
A5U U41C A47G A57G U69C | 0.17
G6A A28G C29G U31A A45G U54A A57U | 0.05
G6A A13U A15G | 0.09
A5U U31C U41C U49C | 0.31
A5U G24A C71U U80C | 0.25
G6A A21G U31C U60C C62G | 0.05
A5U G30A U41A U74G | 0.16
G6A G7A A18G A28G A57G | 0.07
A5U U58C A64U A77G | 0.16
A5U U26C U51C U67C U74C | 0.15
A5U U41C U51C G52A U66A U74C | 0.39
G6A A15G G55A U58C A75U | 0.25
G6A A15G U26G U41A U49A U80C | 0.03
